Test results taken from article PMC10668032.
Some of the results follow. At the low end of the ranking, values are background and their order means little.

The sequences below were run against SIX1 homeodomain (reference allele) (UniProt Q15475) (assay: universal protein binding microarray). Details: Universal all-10-mer PBM (8x60K, AMADID 030236), 300 nM GST-tagged protein, Alexa Fluor 488 anti-GST; buffer, salt, pH and temperature not stated; high values mean tight binding; most listed sequences are background and not binding sites; double strand, one strand shown.

Sequence	binding signal [E-score]
AGGTATAG	0.262
TAATCTCA	0.186
CGTGTTTA	-0.123
ACTATGTC	-0.151
CCCCAGCG	-0.00653
AGTACCTG	0.0686
AGTGTAAT	-0.00985
ACCTCTGG	-0.0899
AGTTTGCA	-0.221
TTAAGGAA	-0.108
GTCGGCAA	-0.34
CAATTCAA	-0.0583
GTAGTAAA	-0.204
AACTGGTC	-0.133
GTGATGTA	0.0932
ATGCGTTG	-0.0451
CCGACATA	0.0799
ACGACCGA	-0.101
GGCGCGAC	-0.136
CCCAATGA	0.0613
TACTTAAA	-0.134
CGAGAAAA	-0.24
ACTTCGCG	-0.151
GCACCTGA	-0.186

Sequence	binding signal [E-score]
CAGGAATG	-0.179
GGTTATAA	-0.105
GGTAGCCA	-0.134
ATCCACCA	0.235
ACGACCCC	-0.0301
CCTCTCCG	-0.182
AACTGAGC	0.00265
CCCTCAGC	-0.00513
ACGTCGCG	-0.0436
AAACCCCG	0.0585
CCAGGACG	-0.0378
AGAAAGTA	-0.0383
ATGCCAAT	0.0513
ATCCCTTG	0.271
AGGCTCTC	-0.122
GGCGACGA	-0.221
GAGAGGAC	-0.021
CACGGATC	0.405
TATTACAA	0.0752
ATTGTCGC	-0.0619
GCAGGAGC	-0.05
AGGTATTG	0.29
CTCTTGGC	-0.153
AATGTGGG	-0.0088

Sequence	binding signal [E-score]
CTTTTGAA	-0.147
CATAGGAC	-0.197
CAGGCCCA	-0.114
CCCCCGCC	0.191
AGGTATTC	0.121
ATTTCCAA	-0.274
AAACGTAC	-0.172
CATCAAGA	-0.144
CTTTAAAC	-0.187
AAGGTACG	0.0146
CCGTTAAA	-0.19
ACATTGCA	-0.137
AGATTCCC	0.0722
CGAGCGTC	-0.147
TAAGTCTA	-0.141
CGTCCACA	-0.0608
ATGATATG	0.472
GAGGGCGC	-0.125
CGCAATAC	0.266
CTACAGTA	0.152
ACCGACAT	0.141
ATCACGTC	0.189
GCTAACTA	-0.0989
CGCTTTAC	-0.16

Sequence	binding signal [E-score]
TACAGGTA	0.244
AATAACGA	0.073
AATGTAGG	-0.211
AAAATTGT	-0.236
AGCCGCGG	-0.0318
ACCGCTCA	-0.0413
CTCGTGTA	0.158
CACATCCA	-0.112
AATCAGGT	0.0776
CTAGTCGC	-0.033
GAAGTAGA	-0.123
CAACTTGC	-0.267
CGGGGCAC	-0.0299
GAGCTTCA	-0.273
GGAGGGCA	-0.0322
CCGTGTGA	0.0686
GCGAGACC	-0.0484
ACTTCCAC	-0.105
GGCCTATA	-0.0709
GAGCAACA	-0.126
ACTGCACT	-0.154
AGGATACG	0.386
